# Test results from PubChem BioAssay AID488969 (Vanderbilt High Throughput Screening Facility, 2010).
# In all, about 110,000 compounds were measured (“z-score”: median about -0.1, highest 2% from about 2 on). The list shows a part of the results.
# Biological target: Metabotropic glutamate receptor 8 (Rattus norvegicus) (UniProt P70579)
# Test: rat mGluR8 modulators via GIRK flux, primary screen, cell-based, thallium flux, HTS (AID 488969)
# Conditions: HEK293 rat mGluR8, GIRK (G protein-gated inwardly rectifying potassium channel) thallium flux, FluoZin2; at 10 µM; stronger effect = higher value; submaximal glutamate (EC20) added with thallium
# UniProt P70579, sequence (P70579 whole entry, looked up): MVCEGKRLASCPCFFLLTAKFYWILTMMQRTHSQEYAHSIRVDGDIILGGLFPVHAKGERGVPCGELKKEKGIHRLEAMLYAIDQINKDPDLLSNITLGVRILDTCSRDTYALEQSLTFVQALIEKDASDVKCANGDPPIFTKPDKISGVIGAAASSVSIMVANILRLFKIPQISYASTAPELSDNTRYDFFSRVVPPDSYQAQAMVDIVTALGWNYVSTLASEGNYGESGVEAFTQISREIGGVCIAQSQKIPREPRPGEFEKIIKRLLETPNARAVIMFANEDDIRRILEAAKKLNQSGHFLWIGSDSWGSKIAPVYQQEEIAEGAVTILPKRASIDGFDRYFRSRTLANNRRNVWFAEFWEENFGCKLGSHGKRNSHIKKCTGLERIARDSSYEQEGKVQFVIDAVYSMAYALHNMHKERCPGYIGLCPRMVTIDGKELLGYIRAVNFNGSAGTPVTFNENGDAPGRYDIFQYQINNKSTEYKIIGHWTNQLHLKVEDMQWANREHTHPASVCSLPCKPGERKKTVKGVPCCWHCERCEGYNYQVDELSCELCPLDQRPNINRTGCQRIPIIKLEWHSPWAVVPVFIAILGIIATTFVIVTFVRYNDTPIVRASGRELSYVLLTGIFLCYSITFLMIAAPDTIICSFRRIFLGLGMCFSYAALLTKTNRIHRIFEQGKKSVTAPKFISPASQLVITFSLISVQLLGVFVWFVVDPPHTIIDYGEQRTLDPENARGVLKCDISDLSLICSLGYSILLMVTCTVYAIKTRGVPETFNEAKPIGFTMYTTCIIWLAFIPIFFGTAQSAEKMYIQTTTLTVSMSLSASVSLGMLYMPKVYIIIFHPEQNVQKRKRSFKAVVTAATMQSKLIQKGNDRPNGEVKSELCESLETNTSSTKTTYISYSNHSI
row,Structure (SMILES),z-score
1,O=C(CNC(=O)c1cccs1)OCC(=O)c1ccc2ccccc2c1,-0.171
2,CCOC(=O)CC1=CC(C)(CC(=O)OCC)C(C#N)(C#N)C(N)=C1C#N (stereo unspecified),0.433
3,COc1ccc(NC(=O)c2ccccc2NC(=O)COc2ccccc2)cc1,-0.239
4,COCCCNC(=O)CSc1nc2ccccc2c(=O)n1CCCC(=O)NCC1CCCO1 (stereo unspecified),0.181
5,Fc1ccccc1C(c1nnnn1Cc1ccc2c(c1)OCO2)N1CCN(Cc2ccccc2)CC1 (stereo unspecified),0.871
6,COC(=O)Nc1nc(-c2ccccc2)c(C(=O)c2ccc(Cl)cc2)s1,-0.124
7,O=C(Oc1ccc2c(-c3ccccc3)cc(=O)oc2c1)C1CCCCC1,0.0348
8,CCCN1C(=O)c2ccc(C(=O)Nc3nccs3)cc2C1=O,0.115
9,CNC(=O)c1sc2nc(-c3ccc(OC)cc3)cn2c1C,-0.425
10,COC(=O)Cc1cc(=O)n2[nH]c(C)cc2n1,-0.0303
11,CC(NC(=O)c1ccc(=O)oc1)c1ccccc1 (stereo unspecified),0.104
12,Cc1ccc(S(=O)(=O)NC(=O)NCc2ccc3c(c2)OCO3)cc1,0.502
13,CC(=O)N1CCc2cc(S(=O)(=O)N3CCOCC3)ccc21,-0.00162
14,CCOc1cc(/C=N/Nc2nc(N3CCCC3)nc(N3CCCC3)n2)ccc1O,-0.549
15,CC(C)C(=O)O/N=C(\N)c1ccccn1,-0.083
16,CSc1nc(Sc2cccc(Cl)c2)c2ccccc2n1,0.093
17,CCC(CC)C(=O)N=C1SC2CS(=O)(=O)CC2N1CCc1ccc(OC)cc1 (stereo unspecified),0.172
18,Nc1c(C(=O)NCc2ccc(F)cc2)c2nc3ccccc3nc2n1CCCN1CCOCC1,-0.163
19,Cc1ccc(S(=O)(=O)Nc2nc3ccccc3s2)cc1,-0.644

row,Structure (SMILES),z-score
1,CCOC(=O)c1c(C)[nH]c(C)c1C(=O)CSc1nc2ccccc2n1CC,-0.111
2,COc1ccc(C(=O)NC(Oc2ccccc2)C(Cl)(Cl)Cl)cc1 (stereo unspecified),-0.143
3,O=C(CSc1nnc(-c2cccnc2)n1Cc1ccco1)NCc1ccc2c(c1)OCO2,-0.237
4,CS(=O)(=O)N(CC(=O)NCc1ccco1)Cc1ccc(Cl)cc1,1.22
5,O=C(c1ccc2c(c1)OCCO2)N1CCN(Cc2ccccc2)CC1,-0.112
6,COC(=O)N/N=C/c1cn(Cc2c(Cl)cccc2Cl)c2ccccc12,-0.175
7,CCOc1ccc(S(=O)(=O)N2Cc3ccccc3CC2C(=O)NCCCn2ccnc2)cc1 (stereo unspecified),0.0281
8,CC(C)(C)C1CCC(=NNC(=O)C(=O)NC2CCCCC2)CC1 (stereo unspecified),0.0263
9,CCOc1ccccc1C(C(=O)NC1CCCC1)N(Cc1ccco1)C(=O)CNC(=O)c1ccco1 (stereo unspecified),-0.231
10,CCc1ccc(CCC(=O)Nc2nccs2)o1,-0.0438
11,Cc1sc2nc(SCC(=O)NCc3ccco3)n(Cc3ccccc3)c(=O)c2c1C,-0.304
12,Cc1ccc(-c2[nH]nc(N)c2N=Nc2ccccc2C)cc1,-0.563
13,CC(OC1=CC(=O)CCC1)C(=O)c1ccccc1 (stereo unspecified),-0.135
14,O=C1NC(c2cc3c(cc2Cl)OCO3)Oc2ccccc21 (stereo unspecified),0.154
15,CCCCN1CNC(=S)N(c2cc(C)ccc2C)C1,-0.162
16,CC(C)OC(=O)N(C)c1ccc(C(O)(C(F)(F)F)C(F)(F)F)cc1,-1.26
17,COc1ccc(-n2c(=O)[nH]cc(C(=O)Nc3ccc4c(c3)OCCO4)c2=O)cc1,-0.488
18,CCOC(=O)C(NC(C)=O)(Nc1ccc(S(=O)(=O)Nc2onc(C)c2C)cc1)C(F)(F)F (stereo unspecified),0.0468
19,CCOc1ccc(NC(=O)CCC(=O)OC)cc1,-0.125

row,Structure (SMILES),z-score
1,COc1ccccc1OCCSc1ncnc2nc[nH]c12,-0.266
2,CCOc1ccc(Oc2cc(C)nc(SC)n2)nn1,0.587
3,O=C(NCc1ccco1)C1(c2ccc(Br)cc2)CCCC1,-0.492
4,CC(C)CC(=O)NC(=S)Nc1ccc(S(=O)(=O)Nc2nccs2)cc1,-0.174
5,O=C1C2C(c3ccccc3)C=CC(c3ccccc3)C2C(=O)N1c1ccccn1 (stereo unspecified),-0.247
6,Cc1ccc(/C(O)=C/C(=O)C(=O)NNC(=O)C(O)(c2ccccc2)c2ccccc2)cc1,2.44
7,CCc1nc2oc3ccccc3c(=O)c2c(=O)n1Cc1ccc(OC)cc1,-0.634
8,Cc1cc(=O)oc2cc(OCCCN3C(=O)c4ccccc4C3=O)ccc12,-0.345
9,C/C(CC(=O)NCc1ccco1)=N\NC(=O)Cc1cccc2ccccc12,-0.268
10,CC1=NC(=O)C(N=Nc2ccccc2)N1c1ccccc1 (stereo unspecified),1.78
11,Cc1nc(-c2cccc(NS(=O)(=O)c3cccc4ccccc34)c2)cs1,-0.314
12,O=C1C2CC=C(Cl)CC2C(=O)N1CCCCCCN1C(=O)C2CC=C(Cl)CC2C1=O (stereo unspecified),0.369
13,CSCCC(NC(=O)c1ccc(Cl)cc1)C(=O)OCC(=O)Nc1cc(Cl)ccc1C (stereo unspecified),-0.211
14,CCOc1ccc(N2CC(C(=O)Nc3ccc(S(=O)(=O)Nc4ncccn4)cc3)CC2=O)cc1 (stereo unspecified),0.292
15,COc1cc(/C=N/c2oc(-c3ccccc3)cc2C#N)ccc1O,-0.17
16,Cc1cccc(C2Nc3ccccc3C(=O)N2c2ccc(F)cc2)n1 (stereo unspecified),-0.433
17,O=C(O)C1CCCCN1S(=O)(=O)c1ccc2ccccc2c1 (stereo unspecified),-0.217
18,Cc1nc2ccc(NC(=O)CCS(=O)(=O)c3ccccc3)cc2s1,-0.000116
